Laboratory results published in PubChem BioAssay AID360 (National Center for Advancing Translational Sciences (NCATS), 2006).
Among all 48,000 compounds or so, about 550 (1.1%) were called active. About 4% were inconclusive and are not listed. Cut-off read from the data, not from the text of the source: active = potency below about 15 µM; inconclusive = mostly about 16 µM to 33 µM; inactive = weaker than that. The list shows a part of the results.

target: Lysosomal acid glucosylceramidase (Homo sapiens) (UniProt P04062); test: Glucocerebrosidase; settings: purified enzyme, resorufin glucoside fluorescence (screen aimed at inhibitors), 20 min;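 note: the screen sought inhibitors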
How it was run: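 Wild-type enzyme at 0.2 nM final in 50mM citric acid/KH2PO4, 10mM sodium taurocholate, 0.01% tween-20, pH 5.9, with resorufin beta-D-glucopyranoside at 30 uM final. Compounds titrated, 20 min at RT, red fluorescence read; AC50 from titration.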
Potency is the fitted concentration of half-maximal effect.

UniProt P04062, sequence (P04062 whole entry, looked up): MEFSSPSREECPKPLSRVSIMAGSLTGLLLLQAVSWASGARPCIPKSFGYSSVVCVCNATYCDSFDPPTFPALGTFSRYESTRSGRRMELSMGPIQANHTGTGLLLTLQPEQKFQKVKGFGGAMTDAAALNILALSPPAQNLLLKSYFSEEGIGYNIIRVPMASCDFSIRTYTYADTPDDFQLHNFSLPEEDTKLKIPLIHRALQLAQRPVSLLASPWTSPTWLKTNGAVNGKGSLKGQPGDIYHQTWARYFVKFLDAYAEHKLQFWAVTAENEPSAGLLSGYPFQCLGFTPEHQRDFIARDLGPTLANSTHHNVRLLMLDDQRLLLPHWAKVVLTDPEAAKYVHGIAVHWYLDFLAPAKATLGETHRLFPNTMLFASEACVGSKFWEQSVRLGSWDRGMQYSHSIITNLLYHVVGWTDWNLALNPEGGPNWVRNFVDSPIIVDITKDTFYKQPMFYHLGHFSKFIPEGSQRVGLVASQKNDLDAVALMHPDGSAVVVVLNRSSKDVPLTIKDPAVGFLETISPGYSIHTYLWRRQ

Potency, inactive:
COc1ccccc1NC(=O)CSc1nnnn1Cc1ccccc1 > 76.9 µM
FC(F)(F)Oc1ccc(Nc2nc3ccccc3o2)cc1 > 76.9 µM
Cn1c(=O)c(=O)n(C)c2cc(S(=O)(=O)N3CCC(N4CCCCC4)CC3)ccc21 > 76.9 µM
Cc1cc(C)c2c3c(sc2n1)C1(CCSCC1)C(C#N)=C(N)O3 > 76.9 µM
CCc1c(O)nc(SCC(=O)NCc2ccco2)[nH]c1=O > 76.9 µM
COc1ccc(Br)cc1CNC(=O)CCc1nc(-c2ccccc2F)no1 > 76.9 µM
CN1CC2(C(=O)c3ccccc3)CN(C)CC(C(=O)c3ccccc3)(C1)C2 > 76.9 µM
CC1CCCC(NC(=O)C2CCN(S(=O)(=O)N3CCOCC3)CC2)C1C (stereo unspecified)
CN(CCNC(=O)C1CCN(S(=O)(=O)c2cnc[nH]2)CC1)Cc1ccccc1 > 76.9 µM
O=C(NCCc1ccc(Cl)cc1)C1CCN(c2cnccn2)CC1 > 76.9 µM
Cc1ccc(-n2c(CSc3nc(C)cc(C)n3)nnc2SCC(=O)Nc2nccs2)cc1 > 76.9 µM
COc1ccc2nc(NC(=O)CSc3nc4cccnc4n3C)sc2c1 > 76.9 µM
COc1ccc(S(=O)(=O)Nc2ccc(NC(C)=O)cc2)cc1OC > 76.9 µM
COc1ccccc1CNC(=O)C(C)NS(=O)(=O)c1ccc(C)cc1 (stereo unspecified) > 76.9 µM
O=C(Nc1ccccc1NC(=O)c1c(F)c(F)c(F)c(F)c1F)c1c(F)c(F)c(F)c(F)c1F > 76.9 µM
O=C(O)c1cccc(NC(=O)C23CC4CC(C2)CC(n2cnc(Cl)n2)(C4)C3)c1 > 76.9 µM
COc1ccc(-c2nnc3sc(-c4cccs4)nn23)cc1OC > 76.9 µM
Cc1cccn2c(=O)c3cc(C(=O)NCc4ccccn4)n(C)c3nc12 > 76.9 µM
CCC(C(=O)OC)n1cnc2c(nnn2-c2ccc(OC)cc2)c1=O (stereo unspecified) > 76.9 µM
O=C(COC(=O)COc1ccccc1)Nc1ccccc1OC(F)F > 76.9 µM
CC1(C)CC(O)C(CCC(O)c2ccccc2)C(C)(C)N1 (stereo unspecified) > 76.9 µM
CC(C#N)Sc1ncnc2sc3c(c12)CCC3 (stereo unspecified) > 76.9 µM
COc1ccc(OC)c(S(=O)(=O)NCc2cn3cccc(C)c3n2)c1 > 76.9 µM
Cc1ccsc1C(=O)Nc1nnc(-c2ccco2)o1 > 76.9 µM
CC(=O)Nc1ccc(S(=O)(=O)CCC#N)cc1 > 76.9 µM
Cc1cc(C)n(-c2nc3ccccc3[nH]c2=O)n1 > 76.9 µM
Nc1ccc(SCCN2C(=O)c3ccccc3C2=O)cc1 > 76.9 µM
COc1cc(S(=O)(=O)N(Cc2ccco2)C2CCCC2)ccc1-n1cnnn1 > 76.9 µM
COc1ccc(OC)c(NC(=O)C23CCC(C)(C(=O)C2)C3(C)C)c1 (stereo unspecified) > 76.9 µM
C[C@H](NC(=O)OC(C)(C)C)c1nnc(SCC(N)=O)o1 > 76.9 µM
C/C(=N\O)C1(C)N(O)C(C)(C)C(c2ccc(Br)cc2)=[N+]1[O-] (stereo unspecified) > 76.9 µM
O=C(O)CSc1nnc(-c2cccnc2)n1Cc1ccccc1 > 76.9 µM
COc1ccc(CNC(=O)CCS(=O)(=O)c2cccc3nonc23)cc1 > 76.9 µM
Cc1cc(C)nc(NC(=O)c2c(-c3ccccc3Cl)noc2C)n1 > 76.9 µM
CCOC(=O)Cn1nc(-c2ccc(C)cc2)ccc1=O > 76.9 µM
O=C(Cn1cnc2sc(-c3ccccc3)cc2c1=O)NCc1ccco1 > 76.9 µM
CSc1nc2c(c(=O)n1-c1ccc(C)cc1)SCC2 > 76.9 µM
O=C(c1ccc2c(c1)OCO2)N1CCc2ccccc2C1 > 76.9 µM
Cc1cc(-c2nnc(SCc3cccnc3)o2)no1 > 76.9 µM
O=C(Nc1cc(C(F)(F)F)ccc1Cl)c1cc(C2CC2)on1 > 76.9 µM
CCc1ccccc1N(C(=O)c1cccs1)C1C=CS(=O)(=O)C1 (stereo unspecified) > 76.9 µM
Cc1ccc(-c2ccc(=O)[nH]n2)cc1 > 76.9 µM
COc1ccc(N2CCN(C(=O)CSc3ncccc3-c3nc4ccccc4[nH]3)CC2)cc1 > 76.9 µM
COC(=O)c1sccc1NC(=O)c1cccnc1 > 76.9 µM
Cn1nnnc1SCC(=O)Nc1ccccc1N1CCCCC1 > 76.9 µM
CCOC(=O)C1CCCN(Cc2cccc(Cl)c2)C1 (stereo unspecified) > 76.9 µM
COc1ccc(NC(=O)c2oc3ccccc3c2NC(=O)c2ccco2)c(OC)c1 > 76.9 µM
CCCCOc1ccc(-c2nnn(C(C)(C)C(=O)OC)n2)cc1 > 76.9 µM
CSCC[C@H](NC(=O)OC(C)(C)C)c1nnc(SCC(=O)Nc2c(C)cccc2C)o1 > 76.9 µM
Cc1ccc(NC(=O)CN(C)S(=O)(=O)c2cccc3nsnc23)cc1Cl > 76.9 µM
O=C(CCN1C(=O)c2ccccc2C1=O)N1CCN(c2ccccn2)CC1 > 76.9 µM
CCOC(=O)c1cnc2c(C(F)(F)F)cccc2c1N1CCOCC1 > 76.9 µM
C=CCn1c(SC(C)C(=O)NCc2ccc3c(c2)OCO3)nnc1C1CCCCC1 (stereo unspecified) > 76.9 µM
CC(=O)Nc1ccc(N2S(=O)(=O)c3ccccc3S2(=O)=O)cc1
CCCCOC(=O)c1ccc(NC(=O)C2CCCO2)cc1 (stereo unspecified) > 76.9 µM
O=C(c1cccc(S(=O)(=O)N2CCCC2)c1)c1nnc(-c2ccncc2)o1 > 76.9 µM
CCC1CCCCN1CCNS(=O)(=O)c1ccc2c(c1)CCN2C(C)=O (stereo unspecified) > 76.9 µM
CCOc1cc2oc(=O)c3c(c2cc1Cl)CCC3 > 76.9 µM
CCC(C)NC(=O)C1CC(c2ccc(OC)cc2)=NO1 (stereo unspecified) > 76.9 µM
COc1ccc(-c2ccc(SCC(=O)N3CCOCC3)nn2)cc1OC > 76.9 µM
O=C(CCc1nc2ccccc2s1)OCC(=O)N1CCN(C(=O)c2ccco2)CC1 > 76.9 µM
Cc1ccc(C)n1-c1ccc(C(=O)N2CCOCC2)cc1 > 76.9 µM
Cc1nc2sc3c(c2c(=O)o1)CCCC3 > 76.9 µM
CCCc1[nH]nc2c1C(c1ccncc1)C(C#N)=C(N)O2 (stereo unspecified) > 76.9 µM
CCN(CC)CCCN(Cc1cc2cc(OC)ccc2[nH]c1=O)C(=O)Nc1ccccc1 > 76.9 µM
O=c1cc(CSc2nnnn2-c2ccccc2)[nH]c2[nH]n(-c3ccccc3)c(=O)c12 > 76.9 µM
Cc1cc(C)n(C(=O)c2cccc(S(=O)(=O)N3CCOCC3)c2)n1 > 76.9 µM
N#Cc1ccsc1NC(=O)c1ccccn1 > 76.9 µM
CCCCOc1ccccc1C(=O)NCC(=O)O > 76.9 µM
COC(=O)c1cccc2c1-c1ccccc1/C2=N/O > 76.9 µM
Cc1ccc(-n2nnnc2SCC(=O)Nc2ccccc2N2CCCCC2)cc1C > 76.9 µM
CCCCn1c(CN2CCN(C(=O)OCC)CC2)nc2c1c(=O)[nH]c(=O)n2C > 76.9 µM
CCC(C)(C)n1nnnc1C(c1cc2cc(OC)c(OC)cc2[nH]c1=O)N1CCc2ccccc21 (stereo unspecified)
Cn1c(SCC(=O)c2ccc3c(c2)OCO3)nnc1-c1ccccn1 > 76.9 µM
CCOC(=O)N1CCN(C(=O)c2cn(CCOC)c(=O)c3c2c2ccccc2n3C)CC1 > 76.9 µM
CC(=O)Nc1ccc(S(=O)(=O)NCC2CCC(C(=O)NCCC(C)C)CC2)cc1 (stereo unspecified) > 76.9 µM
CCOc1ccccc1NC(=O)Cn1nnc(C(=O)Nc2ccccc2Cl)c1N > 76.9 µM
O=C(c1ccccc1)N1CCN(CC(O)COCC2CC=CCC2)CC1 (stereo unspecified) > 76.9 µM
Cc1ccc(S(=O)(=O)N(Cc2nccn2C)C(C)C)cc1 > 76.9 µM
CC(CS(=O)(=O)c1cccc2cccnc12)N1CCCCC1 (stereo unspecified) > 76.9 µM
COc1ccc2cc3cc(C(=O)Nc4ccc5c(c4)OCCO5)oc3nc2c1 > 76.9 µM
Cc1cc2oc(C(=O)N(Cc3ccco3)C3CCS(=O)(=O)C3)cc(=O)c2cc1Cl (stereo unspecified) > 76.9 µM
CC(=O)c1ccc(N2CCN(C(=O)C3CCN(S(=O)(=O)Cc4ccccc4)CC3)CC2)cc1 > 76.9 µM
O=C(CN1CCC(NC(=O)c2cccc(F)c2)CC1)NCc1ccccc1F > 76.9 µM
COc1ccc(-c2noc(-c3ccco3)n2)cc1OC > 76.9 µM
NC(=O)CSc1nnc(-c2cnccn2)n1-c1ccccc1 > 76.9 µM
CCCCn1c(SCC(=O)N2CCC(C)CC2)nc2cc(S(N)(=O)=O)ccc21 > 76.9 µM
COCCNC(=O)C(c1ccc(C)o1)N(Cc1ccc(OC)cc1)C(=O)Cn1nnc2ccccc21 (stereo unspecified) > 76.9 µM
Cc1ccc(-n2c(=O)c(C#N)cc3c(=O)n4ccccc4nc32)cc1 > 76.9 µM
COc1ccc(C(=O)COC(=O)Cn2nnc3ccccc32)cc1Br > 15.4 µM
O=C(CN1C(=O)COc2ccccc21)N1CCc2ccccc21 > 76.9 µM
